Whole data set: some 110,000 compounds, median “z-score” near -0.1, cut for the highest 2% near 2. The list shows a part of the results. Calls of active or inactive are those of the source.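 The calls were made as follows: active = z-score in the third read window above 3 or below -3; inactive = the rest.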

The target in the assay is Metabotropic glutamate receptor 8 (Rattus norvegicus) (UniProt P70579). Put plainly: mGluR8 Gi/Go-coupled signaling modulation – cell-based, rat, thallium flux, HTS, primary screen (AID 488969). The following applies: HEK293 rat mGluR8, GIRK (G protein-gated inwardly rectifying potassium channel) thallium flux, FluoZin2; at 10 µM; stronger effect = higher value; submaximal glutamate (EC20) added with thallium.
UniProt P70579, sequence (P70579 whole entry, looked up): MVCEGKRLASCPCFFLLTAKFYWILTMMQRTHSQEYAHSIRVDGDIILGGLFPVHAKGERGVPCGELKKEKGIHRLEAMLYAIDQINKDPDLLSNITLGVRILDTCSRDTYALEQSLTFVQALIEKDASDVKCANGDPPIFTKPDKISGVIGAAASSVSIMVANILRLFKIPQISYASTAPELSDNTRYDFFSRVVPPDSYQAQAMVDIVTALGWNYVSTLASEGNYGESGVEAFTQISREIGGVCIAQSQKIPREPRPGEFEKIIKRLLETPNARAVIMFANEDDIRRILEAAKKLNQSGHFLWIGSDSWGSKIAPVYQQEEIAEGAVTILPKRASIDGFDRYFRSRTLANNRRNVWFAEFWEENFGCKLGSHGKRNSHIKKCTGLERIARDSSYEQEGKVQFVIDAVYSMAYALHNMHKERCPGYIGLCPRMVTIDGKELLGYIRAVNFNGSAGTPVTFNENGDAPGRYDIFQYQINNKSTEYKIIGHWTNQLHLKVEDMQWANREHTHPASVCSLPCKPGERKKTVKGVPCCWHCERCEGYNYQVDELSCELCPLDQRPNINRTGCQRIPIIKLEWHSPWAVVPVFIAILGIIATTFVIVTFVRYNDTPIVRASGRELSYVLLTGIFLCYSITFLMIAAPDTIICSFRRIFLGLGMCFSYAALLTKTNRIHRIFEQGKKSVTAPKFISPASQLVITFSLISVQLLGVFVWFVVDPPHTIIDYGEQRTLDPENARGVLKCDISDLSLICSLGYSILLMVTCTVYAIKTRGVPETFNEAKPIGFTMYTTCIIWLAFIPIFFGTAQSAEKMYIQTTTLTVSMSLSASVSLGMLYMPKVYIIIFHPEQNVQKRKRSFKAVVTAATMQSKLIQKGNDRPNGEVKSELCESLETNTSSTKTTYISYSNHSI
In turn, `Cc1ccc(Nc2nnc(SCC(=O)c3ccc(Br)s3)s2)c(C)c1` registered a z-score of 1.06.

Compound `CCOC(=O)c1sc(=S)n(-c2cccc(OC)c2)c1N` yielded a z-score of 0.326.

The compound `CCC(C)[C@H](NC(=O)OC(C)(C)C)C(=O)N/N=C/c1cccc2nccnc12` (stereo not given in full) showed a z-score of 0.114.

As to `CCc1ccccc1NC(=O)c1ccccc1Sc1ccc([N+](=O)[O-])cc1Cl`, the z-score came to 0.165.

Compound `Cc1ccc(NC2=NCCCCC2)cc1` gave a z-score of -0.722.

`CC(C)(C#N)Nn1cnnc1` gave a z-score of -0.406.

With `COc1ccc(C2(CNC(=O)c3cccc([N+](=O)[O-])c3)CCOCC2)cc1OC`, the z-score is -0.337.

`Cc1cc(C(=O)NC(=S)Nc2cccc(NC(=O)C(C)C)c2)ccc1[N+](=O)[O-]`: the z-score turned out to be 0.315.

The compound `O=S(=O)(c1ccc(Br)cc1)N1CCN(c2ccc3nnc(-c4ccccc4)n3n2)CC1` had a z-score of -0.455.

`CCOc1ccc(NCc2cc3c(C(C)(C)C)nn(-c4ccccc4)c3[nH]c2=O)cc1` showed a z-score of -0.079.

As for `C=CCSc1nc2c(c(C3CC=CCC3)c1C#N)CCC2` (stereo not given), the z-score came out at 0.459.

As for `Clc1ccc2c(N3CCCC3)ccnc2c1`, the z-score was 2.36.

Take `O=[N+]([O-])c1ccc(Cl)c(/C=N/n2c(C3CCCCC3)n[nH]c2=S)c1`: the z-score is -1.39.

`CCOc1ccc(OCC)c(S(=O)(=O)NCc2ccc3c(c2)OCO3)c1` registered a z-score of 0.112.

As for `CC(Oc1ccc(Cl)cc1Cl)C(=O)Nc1ccc(N2CCN(C)CC2)cc1` (stereo not given), the z-score was -0.0257.

As for `CCN(CC)C(=O)CSc1nc(-c2ccco2)cc(C(F)(F)F)c1C#N`, the z-score was -0.446.

Turning to `COc1ccccc1OCC(=O)NCCSCc1ccc(Cl)cc1`, the z-score is -0.896.

`COc1ccc(NC(=O)CN(C)S(=O)(=O)c2ccc(Cl)cc2)cc1Cl`: the z-score is -0.376.

For the compound `COc1cc(OC)c(OC)cc1C=NCC1(c2ccccc2)CCCC1`, the z-score worked out at 0.915.

As to `Cc1ccc2nc(-c3ccc(SCC(=O)Nc4nnc(C)s4)nc3)[nH]c2c1`, the z-score is -0.316.

`O=C(NC1=NCCS1)c1ccc(Br)s1` gave a z-score of -0.212.

On to `CCOc1ccc(S(=O)(=O)NCCCN2CCOCC2)cc1`, for which the z-score is 0.0775.

Compound `CC1CCCC(NC(=O)COC(=O)c2ccccc2NC(=O)c2ccco2)C1C` (stereo not given) showed a z-score of -0.294.

The compound `CCOc1ccc(C(C)(C)C)cc1S(=O)(=O)N1CC(C)OC(C)C1` (stereo not given) had a z-score of -0.263.

Turning to `O=C(Cc1ccc(Cl)cc1)Nc1ccccc1CO`, the z-score was 0.184.

`Cc1cc(C)n(-c2nc3ccccc3nc2N2CCC(C)CC2)n1` showed a z-score of -0.57.

On to `COc1cccc(NC(=O)CSCc2n[nH]c(=O)[nH]2)c1`, for which the z-score was -0.182.

`Cc1cc(NC(=O)CSc2ccc3ccccc3c2)no1` registered a z-score of 0.118.

The compound `CC1CCC/C(=N\NC(=O)COc2ccc(Cl)cc2Cl)C1` (stereo not given) gave a z-score of 1.13.

`Cn1c(=O)oc2cc(S(=O)(=O)N3CCN(c4ccc(F)cc4)CC3)ccc21` gave a z-score of 0.0473.

Compound `NS(=O)(=O)c1ccc(NC(=O)C2CCCO2)cc1` (stereo not given) displayed a z-score of -0.087.

`O=C(O)CC1=C(O)C(=O)N(c2ccccc2)C1c1ccc(Br)cc1` (stereo not given) yielded a z-score of 0.0277.

`CCC(C)NS(=O)(=O)c1ccc(S(=O)(=O)N(CCc2ccc(OC)c(OC)c2)Cc2cccs2)cc1` (stereo not given) yielded a z-score of -0.265.

In turn, `C=C(C)CSc1nc2nc(C)cc(C)n2n1` registered a z-score of -0.0365.

`CCOC(=O)CSc1nsc(SCC(=O)OCC)c1C#N` had a z-score of -1.22.

Compound `CCn1c(=O)n(CC)c2cc(S(=O)(=O)NCCOc3ccccc3)c(C)cc21` displayed a z-score of 0.0374.

As for `CS(=O)(=O)N(CC(=O)NCC1CCCO1)Cc1ccc(Cl)cc1` (stereo not given), the z-score worked out at 0.0219.

`Cc1ccc(N=C2NC(=O)/C(=C/c3cccs3)S2)cc1C` registered a z-score of -0.323.

With `Oc1ccc(-c2nc3ncccn3c2Nc2ccc3c(c2)OCO3)cc1`, the z-score was -0.386.

Compound `c1ccc(-c2ncnc3nc4n(c23)CCC4)cc1` returned a z-score of 0.408.

Compound `C(=N\n1cnnc1)/c1cccn1-c1ccccc1` showed a z-score of 0.848.

As for `COc1ccccc1C1/C(=C(\O)c2c(C)nc3c(C)cccn23)C(=O)C(=O)N1CCCN(C)C` (stereo not given), the z-score is -0.521.

The compound `Nn1c(SCc2cccc(C(F)(F)F)c2)nnc1-c1ccco1` registered a z-score of 1.92.

Compound `O=C(NCc1ccco1)C12CN(Cc3ccccc3)CC1C(c1cccc([N+](=O)[O-])c1)=NO2` (stereo not given) displayed a z-score of -0.343.

`Cc1cc(C)c(S(=O)(=O)N2CCCCC2)cc1N(C)S(=O)(=O)c1ccc(Cl)cc1` gave a z-score of -0.144.

Take `CC(=O)COc1ccc2c(-c3ccccc3)cc(=O)oc2c1`: the z-score was 0.0164.

`O=C(Nc1nnc(SCc2ccccc2)s1)c1cc2c(s1)CCCC2` returned a z-score of -0.0564.

Turning to `CCn1c2ccccc2c2cc(NC(=O)COC(=O)Cc3cn4ccsc4n3)ccc21`, the z-score was -0.0951.

The compound `N#C/C(=C\c1cn(Cc2ccc(F)cc2)c2ccccc12)C(=O)NCc1ccco1` had a z-score of -0.41.

With `COc1ccc(CCNC(=O)CSCc2ccc(Cl)cc2)cc1OC`, the z-score is 0.454.

In turn, `O=C(Nc1ccc(Br)c(C(F)(F)F)c1)c1ccccc1` displayed a z-score of 0.42.

With `CCN(CC)C(=O)CSc1nnc(CNc2ccc(F)cc2)o1`, the z-score is -0.212.

Regarding `O=C(/C=C/c1ccc(O)c(O)c1)c1ccc(S(=O)(=O)N2CCCCCC2)cc1`, the z-score was -0.0669.

The compound `Clc1ccc(/C=N/Nc2ncnc3ccccc23)cc1Cl` displayed a z-score of -0.176.

Compound `CCOC(=O)c1c(NC(=O)CSc2nc3ccccc3o2)sc(C)c1C` gave a z-score of -0.0559.

In turn, `Cc1ccc(Cl)cc1N1CCN(C(=O)C2(S(=O)(=O)c3ccc(Cl)cc3)CC2)CC1` yielded a z-score of 0.0583.

The compound `CSc1ccccc1Sc1cc(C(=O)O)c2ccccc2n1` came in with a z-score of -0.623.

On to `CC1=NN(C(=O)c2csc(C(C)C)c2)C(O)(C(F)(F)F)C1` (stereo not given), for which the z-score is -0.36.

Consider `CCCNCC1COc2ccccc2O1` (stereo not given), for which the z-score is -0.0887.

For `O=c1[nH]c(CN2CCN(S(=O)(=O)c3ccc(Cl)cc3)CC2)nc2cc(Cl)ccc12`, the z-score was -0.242.

With `Cc1cccc(C)c1OC(=O)CN(c1ccc(Cl)cc1)S(C)(=O)=O`, the z-score was -2.06.

As for `CCOC(=O)c1cnc(-n2nc(C)cc2C)nc1N1CC(C)OC(C)C1` (stereo not given), the z-score is -0.0793.

Regarding `O=C(COc1ccc(S(=O)(=O)N2CCOCC2)cc1)NC1CCCC1`, the z-score is 0.339.

For the compound `Cc1ccc2oc(-c3cccc(NC(=O)c4cc(-n5cnnc5)ccc4Cl)c3)nc2c1`, the z-score is -0.0315.

With `CCCCn1c(SC(C)C(=O)c2ccc(OC)cc2)nc2cc(S(N)(=O)=O)ccc21` (stereo not given), the z-score is -1.06.

For `COc1ccc(NC2=NC(=S)N(c3ccccc3C)C23CCCCC3)cc1`, the z-score is active: 15.4.

The compound `COc1ccc(NC(=O)CN(Cc2ccccc2)Cc2ccccc2)cc1S(N)(=O)=O` had a z-score of -0.193.

Compound `c1ccc(-c2nc(NCCCN3CCOCC3)c3ccccc3n2)cc1` returned a z-score of 1.24.

For `Cc1cc(C)n2cc(CSc3nc4cc(Cl)ccc4o3)nc2n1`, the z-score is -0.565.

On to `O=C(c1ccco1)N1CCN(C(=O)c2ccc(COc3ccc4c(c3)CCC4)o2)CC1`, for which the z-score is -0.21.

The values above are taken from PubChem BioAssay AID488969 (Vanderbilt High Throughput Screening Facility, 2010).
